# Reference: publication PMC12136788
# Some of the results follow.
# T1: UNK ZnF1-3 (human, UniProt Q9C0B0 31-174)
# T1 sequence: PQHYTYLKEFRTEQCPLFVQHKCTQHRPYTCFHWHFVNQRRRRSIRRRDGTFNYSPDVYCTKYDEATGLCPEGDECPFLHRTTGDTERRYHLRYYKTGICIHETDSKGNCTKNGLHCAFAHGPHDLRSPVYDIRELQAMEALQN
# B1: chr5:128440902:128440903:+_ENSG00000066583_ENST00000173527|hu_mus|hu_hu_hu_mus_True|78_108 (ssRNA)
# RNA: GGGAGUUCUACAGUCCGACGAUCUUGAACCGUGCUCCCAAGUCCUUUGGGGUAUUGUUCUGUUACAAUAACUGGAAUCCCUAAGAUCCGAGCUCCUUGCAACAGUCUCUGUCCCACACUAAUGAUGUCCCCAAAGUAUUUGAUCAACAGAGGAUUGAGCAUCA
# B2: chr14:78183846:78183847:+_ENSG00000119705_ENST00000557342|hu_hu|hu_hu_hu_mus_False|18_38 (ssRNA)
# RNA: GGGAGUUCUACAGUCCGACGAUCUCUCAGAAAUCUUUCUUCAUCAGAUGUUUGAGCUCCGUGCAAAGCCUUUGCUCUUUGAGCUUGAACGUGGAUCUUUACUCCAUAAAGCACUGUAUUUUCCUGUAAUUUUUUUUUUAAAGACAACAGAGGAUUGAGCAUCA
# B3: chr8:104447970:104447971:+_ENSG00000164934_ENST00000297579|hu_hu|hu_hu_hu_mus_False|1_108 (ssRNA)
# RNA: GGGAGUUCUACAGUCCGACGAUCAUAUACCUCCCUGCUUCGGCUCUUGUCCACAGGAAAGAUUCUAAUAGACUUAUCAAAGCUGGCAGACACAAAUUCCUUCCCAGUGGGAGAGUAGUCCACAUCAAGUACUGCAGAUACAUGCAACAGAGGAUUGAGCAUCA
# B4: chr17:60770872:60770873:+_ENSG00000011028_ENST00000303375|hu_hu|hu_hu_hu_mus_True|1_88 (ssRNA)
# RNA: GGGAGUUCUACAGUCCGACGAUCUCUUUAAAAAAAAAAAAAAAAAGUUUAAAAACAAUAGCACAUUUCGAGAAUCAAGAACUACAAUAGAGGGUCCGCUUUGAGUUUUUGUUCACAUCGUCCUGCACUGGGACACGACCAGGACAACAGAGGAUUGAGCAUCA
# B5: chr8:74858975:74858976:-_ENSG00000154582_ENST00000284811|hu_mus|hu_hu_hu_mus_True|1_1 (ssRNA)
# RNA: GGGAGUUCUACAGUCCGACGAUCGACCUUGUAGGUAAAAUACAUGCACACUUUUGAUAGCACAUGUGAGGGGAUCUCUCUAAAAUUGACCUCGUUGGUUUCAUUCUCAGCAAACUGACCUGGACCACUCAACAUAGCUUUUAUCAACAGAGGAUUGAGCAUCA
# B6: 147080970_147081090_5547_CDS_ENSMUSG00000025272_ENSMUST00000087258|mouse|control|control (ssRNA)
# RNA: GGGAGUUCUACAGUCCGACGAUCAGUGCCCAGUUCACCACCAAAAUCAGUGUUAGUGUUUAGUCCACCAUUGAAGCCAGCACUGUUACCCAGUCCUCCAUUGAAGUCAGCAUUAUGAUUUAGUCCACCACUGAAAUCCGUGCUCAACAGAGGAUUGAGCAUCA
# B7: 23985464_23985584_443_3pUTR_ENSG00000151835_ENST00000382298|human|control|control (ssRNA)
# RNA: GGGAGUUCUACAGUCCGACGAUCAAAUGUGUACUCCAAGUUCAGCUCUUCCUGCCAGGUGGAAAAAAAGCCUGUUUUUCCCUUCAGUGUCCAUUCAUCAUCUGAUGUCAGGAAACAUUGUCGUGUGUUGCAUUUGUAUUCCUUCAACAGAGGAUUGAGCAUCA
# B8: chr4:175160266:175160267:-_ENSG00000164117_ENST00000503293|hu_hu|motif|central (ssRNA)
# RNA: GGGAGUUCUACAGUCCGACGAUCAGGGGCAUGGAUAUGACGAAAAAAUUCUCUCAGUGCAUUUGGCAAGAACUGAUUUCGGAAAUUAUGCAAUGUUACAAGGUCAUCCAAGACAUCUCUCCUUUCAUCAAGAUAGAUUCUCAGCAACAGAGGAUUGAGCAUCA
# B9: chr2:69661947:69661948:+_ENSMUSG00000042155_ENSMUST00000053087|mus_mus|FALSE|FALSE (ssRNA)
# RNA: GGGAGUUCUACAGUCCGACGAUCAGCUCGGUGACAAUGGAAGAUUAUGCCUGAAGGACACUGAAGGGUAAUAUCAGUAAAUAGUCCAUCCAUGUAAAACGUUCUGAAUGCAUCCAGAAAAUCCACUGGAUGCGACGAAUCCUUCAACAGAGGAUUGAGCAUCA
# B10: chr2:198351390:198351391:-_ENSG00000144381_ENST00000345042|hu_hu|hu_hu_hu_mus_False|1_48 (ssRNA)
# RNA: GGGAGUUCUACAGUCCGACGAUCUCAUUCCCACCCUCCACAGAAAGGCUGCUUCUGAACUCUCAUGUGGUGACACAGCGCUACAGUCCUGAUUUUAACAGAACAGUAGAGAUGCCUCAGUGAUUUAAGUUGAAAGCAGCAGUACAACAGAGGAUUGAGCAUCA
# B11: chr2:153593888:153593889:+_ENSMUSG00000027479_ENSMUST00000028981|mus_mus|motif|central (ssRNA)
# RNA: GGGAGUUCUACAGUCCGACGAUCCUCAGUAGUGGGUAACACAUUUUGCAGAGUUCGCCAAACAAAGGAAUUGAAUAGGCGGUGGGUAAAGCAAUUGAGGGAGAAUUAAGGAAUGAAGUAUUUUAAAUAUUAAUAUUUCAGUCACAACAGAGGAUUGAGCAUCA
# B12: chrX:71549762:71549763:+_ENSMUSG00000019087_ENSMUST00000019231|mus_mus|mus_mus_mus_hu_False|1_88 (ssRNA)
# RNA: GGGAGUUCUACAGUCCGACGAUCAAACCCGUGUACUUCUUAUUGUUACAUCACCCCCACCAGAAAACGAUAACGACAGCCAAGCAGGACAGACAGUUAAGUAGUACUUCCACACUCCCAAACUCAGGGAGCCCUAUAGUUCAUCAACAGAGGAUUGAGCAUCA
# B13: chr7:157178285:157178286:+_ENSG00000105993_ENST00000429029|hu_hu|FALSE|FALSE (ssRNA)
# RNA: GGGAGUUCUACAGUCCGACGAUCGAAUUACUUGUUAUCCAAGCGCAGCAGCUGCUCCUUACCAUUUAUUGUUAAGGACUUUAACUGGCCAUCUUCUUCAACUUCUACUCUUUCUUGACCGUUCUCGACAAUUCUCUUUGUAGUCAACAGAGGAUUGAGCAUCA
# B14: chr1:109605286:109605287:-_ENSG00000197780_ENST00000461096|hu_mus|hu_hu_hu_mus_True|38_38 (ssRNA)
# RNA: GGGAGUUCUACAGUCCGACGAUCAAGUUUCAGAGUAACAUUCAGUAACCUCUUUAAAUGCAAUUAUCCUUAUUAUAAGCUAAGCAGAAUAAUAAUUUAAUACAUAGAGUGAACUACACACAAAGCCUGAACCGCGAAAAUGGUCAACAGAGGAUUGAGCAUCA
# Molecular target: T1, UNK ZnF1-3
# Test: nsRBNS (natural sequence RNA bind-n-seq); RBNS binding buffer (assumed for nsRBNS): 25 mM Tris pH 7.5, 150 mM KCl, 3 mM MgCl2, 0.01% Triton X-100, 500 ug/ml BSA, 20 U/ml SUPERase-In, 4 C; UNK is unkempt and MSI1 is Musashi-1; names of the RNAs are library labels; protein concentration not given here; high values mean tight binding
row,Binder,binding signal [enrichment R]
1,B1,0.529
2,B2,0.73
3,B3,0.947
4,B4,3.13
5,B5,0.84
6,B6,0.885
7,B7,0.622
8,B8,1.16
9,B9,1.85
10,B10,0.962
11,B11,2.1
12,B12,1.66
13,B13,0.431
14,B14,0.748
